Measurements from article PMC4336329 (PLoS ONE, 2015).
Hit rate of the full screen: of about 310,000 compounds, about 14,000 (4.5%) showed an effect of 50% or more. The effect is printed as a negative number. The list shows a part of the results.

Target: human ether-à-go-go-related gene (hERG) potassium channel (human, UniProt Q12809)
Experiment: primary screen, population patch clamp on CHO cells stably expressing hERG
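Further: peak tail current of the secondary pulse compared with the same well before compound.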

human ether-à-go-go-related gene (hERG) potassium channel, sequence (Q12809 whole entry, looked up): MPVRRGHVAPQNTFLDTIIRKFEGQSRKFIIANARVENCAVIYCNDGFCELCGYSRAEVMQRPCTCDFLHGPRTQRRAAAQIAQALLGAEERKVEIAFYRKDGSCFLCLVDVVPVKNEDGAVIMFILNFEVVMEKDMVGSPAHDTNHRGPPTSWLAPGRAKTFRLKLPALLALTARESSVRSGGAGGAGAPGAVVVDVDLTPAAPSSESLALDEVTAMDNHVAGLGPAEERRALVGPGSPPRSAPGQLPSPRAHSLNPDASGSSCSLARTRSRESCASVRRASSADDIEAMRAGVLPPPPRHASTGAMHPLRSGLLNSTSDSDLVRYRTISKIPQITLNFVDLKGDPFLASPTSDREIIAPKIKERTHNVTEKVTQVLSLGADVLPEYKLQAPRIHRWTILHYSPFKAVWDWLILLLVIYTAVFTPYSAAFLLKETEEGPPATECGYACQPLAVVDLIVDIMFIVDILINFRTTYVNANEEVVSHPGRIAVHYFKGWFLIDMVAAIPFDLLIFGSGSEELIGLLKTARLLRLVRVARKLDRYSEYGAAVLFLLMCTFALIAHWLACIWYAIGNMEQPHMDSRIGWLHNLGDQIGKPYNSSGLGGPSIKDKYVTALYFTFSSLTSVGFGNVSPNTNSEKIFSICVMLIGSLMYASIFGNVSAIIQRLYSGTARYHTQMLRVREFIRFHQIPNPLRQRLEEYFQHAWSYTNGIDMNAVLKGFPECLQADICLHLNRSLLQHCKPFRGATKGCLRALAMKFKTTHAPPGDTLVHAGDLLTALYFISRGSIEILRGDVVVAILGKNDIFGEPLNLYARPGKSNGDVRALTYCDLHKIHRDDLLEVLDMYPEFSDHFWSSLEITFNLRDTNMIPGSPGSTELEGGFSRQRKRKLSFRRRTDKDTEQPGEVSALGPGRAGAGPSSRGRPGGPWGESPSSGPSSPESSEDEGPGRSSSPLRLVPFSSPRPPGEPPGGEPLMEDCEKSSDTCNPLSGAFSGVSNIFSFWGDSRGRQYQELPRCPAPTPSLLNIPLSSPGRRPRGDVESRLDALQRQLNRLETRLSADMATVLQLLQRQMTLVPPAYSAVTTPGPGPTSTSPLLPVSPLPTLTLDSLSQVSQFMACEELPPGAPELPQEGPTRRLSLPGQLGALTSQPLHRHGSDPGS

Compound | hERG current change (%, negative = inhibition) at 10uM
CCN(Cc1cnn(C)c1)C(=O)c1ccc(OC2CCN(S(=O)(=O)N(C)C)CC2)cc1 | 19.1%
Cc1ccc(C)n1CCN1CCN(CC(=O)Nc2ccc(S(N)(=O)=O)cc2)CC1 | -12.2%
Cc1ccc(OCC(=O)c2c[nH]c3ccccc23)c([N+](=O)[O-])n1 | 24.4%
COc1ccc(OC)c(CNc2ccc3c(c2)nc(C)n3C)c1 | -68.4%
O=C(CSC1=NCCS1)Nc1cccc(F)c1 | -7.23%
CC(C)C[C@H](NC(=O)OC(C)(C)C)c1n[nH]c(=S)n1N | 16.4%
O=C(NN=C1CCCC1)c1cccc(O)c1 | 8.96%
Cc1nc(N(C)C)c2sc(=S)n(-c3ccccc3)c2n1 | 20.6%
CCN(c1ccc(C(O)(C(=O)OC)C(F)(F)F)cc1)S(=O)(=O)c1ccc(C)cc1 (stereo not shown) | -35.1%
COc1ccc(Cl)cc1NC(=O)COC(=O)CNC(=O)c1ccc([N+](=O)[O-])c(C)c1 | 14.9%
C=CCn1c(SC(C)CC)nc(O)cc1=O (stereo not shown) | 20.1%
CCN(CC)S(=O)(=O)c1ccc(N2CCCC2)c(NC(=O)c2nn(C)c(=O)c3ccccc23)c1 | -23%
Cc1onc(-c2c(F)cccc2Cl)c1C(=O)NC1=NCCS1 | 0.818%
Cc1c(C#N)c2ncnc(-c3ccccc3)c2n1-c1ccccc1 | -11.3%
CC(CN1CCCCC1)NC(=O)c1cc(-c2ccccn2)nc2ccc(Cl)cc12 (stereo not shown) | -21.8%
COc1ccc2nc(C)cc(N3CC(C)OC(C)C3)c2c1 (stereo not shown) | -49.6%
CC(=O)N(c1ccccc1Cl)S(=O)(=O)c1ccc(Cl)cc1 | 27.9%
O=c1c2cc(Br)ccc2nc(-c2ccccc2)n1O | 31.8%
O=C(O)CCCn1nc(-c2ccccc2)c2ccccc21 | 6.36%
C/C(=N\NC(=S)Nc1ccccc1)C1Cc2ccccc2C(=O)O1 (stereo not shown) | -24.3%
Cn1cc(C(=O)c2ccc(Cl)cc2Cl)cc1C(=O)O | 20.5%
O=C(O)c1cc2ccccc2cc1Nc1ccccc1 | 1.59%

Compound | hERG current change (%, negative = inhibition) at 10uM
CC(C)CC(c1nnnn1CC1CCCO1)N1CCN(Cc2ccc3c(c2)OCO3)CC1.Cl (stereo not shown) | -11%
CSc1ccc(CNc2nnnn2C)cc1 | -11.3%
CCOC(=O)C1C(c2ccc(O)c(O)c2)NC(=S)NC1(O)C(F)(F)F (stereo not shown) | -4.33%
Cc1ccccc1Cn1cc(NC(=O)c2cc(-c3ccco3)on2)cn1 | 15.4%
CN(C1CCS(=O)(=O)C1)S(=O)(=O)c1cccs1 (stereo not shown) | -51.6%
CCOC(=O)Nc1cccc(NC(=O)c2cc(OC)cc(OC)c2)c1 | -53.7%
CCN(CC)CCOC(=O)c1ccc(NC(=O)CCNC(=O)Cn2ccc3ccccc3c2=O)cc1 | 11.8%
Fc1ccc(/C=N/Nc2ccccn2)cc1 | -2.11%
Cc1nc([N+](=O)[O-])c(SCC(O)CCl)n1Cc1ccc(Cl)cc1 (stereo not shown) | -59.9%
C=C1C(=O)O[C@@H]2[C@H]1[C@@H](OC(=O)/C(C)=C/C)C/C(C)=C\C(=O)/C=C(\C)[C@@H]2O | 8.42%
COC(=O)CSc1nnc(-c2ccc(S(=O)(=O)N3CCCC3)cc2)n1C | 13.3%
CCOC(=O)C1CCN(S(=O)(=O)c2ccc(CNC(=O)c3ccccc3)s2)CC1 | -50.3%
CC(N=Cc1nc(-c2ccccc2)oc1O)c1ccccc1 (stereo not shown) | -10.7%
Cc1ccc(C)c(Cn2c(C(=O)OC(C)C)cc3c2ccn3C)c1 | -6.5%
CCN1C(=O)[C@@H]2[C@@H](c3ccc(-c4ccc(OC)cc4)c(OC)c3)N3CCCC[C@@]3(C(=O)OC)[C@@H]2C1=O.O=C(O)C(F)(F)F | 10.6%
COc1cc(NC(=O)CC(C)n2ccnc2)cc(OC)c1 (stereo not shown) | 10.7%
CNc1nc(C)c(C#N)cc1C(C)=O | 2.47%
CCOC(=O)N1CCC(Nc2c(N3CCN(c4cccc(C(F)(F)F)c4)CC3)c(=O)c2=O)CC1 | -76.8%
CC(=O)Nc1cccc(NC(=O)c2ccccc2OCc2ccccc2)c1 | 13.5%
Cc1sc(NC(=O)c2ccco2)c(CN2CCN(c3ccc(F)cc3)CC2)c1C | 12.7%
N#C/C(=C\c1ccc(Br)s1)C(=O)N1CCN(c2ccccc2)CC1 | -12.3%
COc1ccc(CCNC(=O)CSc2nc(C)cc(C)n2)cc1OC | 9.5%

Compound | hERG current change (%, negative = inhibition) at 10uM
CCN(CC(=O)NCc1cccnc1)S(=O)(=O)c1ccc(OC)cc1 | -28.3%
COc1ccc(C2(CNS(=O)(=O)c3ccccc3)CCOCC2)cc1 | -4.62%
Cc1cccc(NC(=S)N/N=C(\c2ccccc2)C(C)C)c1 | -1.5%
COc1cc(Cl)c(C)cc1NC(C)C(=O)Nc1cc(C(F)(F)F)ccc1N1CCOCC1 (stereo not shown) | -2.59%
COc1cccc2cc(-c3cn4cccc(C)c4n3)c(=O)oc12 | 17.5%
COc1ccc(Cl)cc1NC(=O)C(C)Sc1n[nH]c(N)n1 (stereo not shown) | 3.42%
CSc1nsc(SC)c1NC(=O)N1CCCCC1 | 2.74%
Cc1ccc(S(=O)(=O)Nc2ccccc2C(N)=O)cc1 | 2.71%
C/C(=C\C(=O)c1c(O)cc(C)oc1=O)N(C)C | 15.4%
COC(=O)c1cc2c(-c3ccccc3)c(C)c3ccccn3c-2c1C(=O)OC | 15.5%
Cc1cccc(NC(=O)c2ccc(Cl)c(S(=O)(=O)N3CCCCC3)c2)n1 | -71.3%
CCC(C)NS(=O)(=O)c1ccc(OCC(=O)Nc2ccc3c(c2)OCCO3)cc1 (stereo not shown) | -26.3%
Cc1ccc(S(=O)(=O)N(C)C)cc1NC(=O)COC(=O)/C=C/c1ccc(F)cc1 | -4.42%
CCCCCCCCCCCCCCCC(O)C(N)CO (stereo not shown) | 1.57%
C=CCN1C(=O)CSc2ccc(C(=O)NCCC3=CCCCC3)cc21 | -27.6%
COc1ccc(C)c2sc(=NC(=O)c3ccc(C(C)=O)cc3)n(C)c12 | 8.45%
COc1ccc(C(C(=O)NC2CCCC2)N(Cc2cccs2)C(=O)c2ccn[nH]2)cc1OC (stereo not shown) | 20.3%
O=C(CCCc1ccccc1)c1ccccc1 | 18.5%
COc1ccc(N2CCN(Cc3cc(=O)oc4ccc(C)cc34)CC2)cc1 | 2.14%
CS(=O)(=O)N(Cc1ccccc1)c1ccc(C(=O)NC2CCCCC2O)cc1 (stereo not shown) | -9.19%
O=C(NCc1ccc2c(c1)OCO2)c1cc(-c2ccccc2)c(N2CCOCC2)s1 | -0.82%
Cc1cc(C(=O)N2CCN(S(=O)(=O)c3ccccc3)CC2)c(C)o1 | 5.6%

Compound | hERG current change (%, negative = inhibition) at 10uM
Cc1cccc(-c2nn(-c3ccccc3)cc2C(=O)N(C)CC(=O)Nc2ccc(N3CCOCC3)cc2)c1 | 24.2%
O=c1cc(CSc2nnc(COc3ccc(Cl)cc3)o2)c2ccccc2[nH]1 | -9.67%
Cc1ccc(S(=O)(=O)Nn2c(O)c(C=C3N=c4ccccc4=N3)sc2=S)cc1 | 3.52%
Cc1onc(-c2ccccc2Cl)c1C(=O)NC(C)c1ccccc1 (stereo not shown) | -4.38%
CCc1nc2ccc(C(=O)N3CCN(c4cccc(OC)c4)CC3)cc2nc1CC | -8.19%
O=C(COc1ccccc1)N1CCCCCCC1 | 3.25%
Cc1nnc(SCc2ccc3c(c2)OCO3)s1 | -12.7%
O=C(O)C(=O)O.OCCN1CCN(c2cc(-c3ccccc3)c3ccccc3n2)CC1 | -63.3%
COc1cc(C(=O)Nc2ccc3c(c2)OCCO3)ccc1OC(C)C | -16.8%
CC(C(=O)OCC(=O)c1ccc(Br)cc1)N1C(=O)C2C3CCC(C3)C2C1=O (stereo not shown) | -40.4%
NC(=O)c1ccc(NC(=S)NCc2ccco2)cc1 | 5.61%
Cl.OC(CN1CC=C(/C=C/c2ccc(Br)cc2)CC1)c1ccccc1 (stereo not shown) | -2.33%
O=c1c2cc(-c3ccccc3)sc2ncn1-n1cccc1 | 3.9%
COc1ccc(-n2cc(CNCc3cnc4ccccn34)c(-c3cccc(F)c3)n2)cc1 | -30.2%
O=C(CCl)N(Cc1ccccc1)c1ccccc1 | 3.18%
CCN1CCCC1Cn1cnc2c([nH]c3ccc(C)cc32)c1=O (stereo not shown) | -70%
CN(CC(=O)Nc1ccccc1Cl)C(=O)c1cccc(S(=O)(=O)N2CCN(Cc3ccccc3)CC2)c1 | -9.44%
Cc1ccc(C)c(N2CCN(C(=O)c3cc(S(=O)(=O)N4CCCC4)cn3C)CC2)c1 | -15.2%
CCc1nc2nc(C)c(NS(=O)(=O)c3ccc(C)c(C)c3)c(=O)n2[nH]1 | 6.32%
CCN(CC)S(=O)(=O)c1cc(NC(=O)Cn2ncc(Cl)c(Cl)c2=O)ccc1C | -29.4%
COc1ccc2cc(Br)ccc2c1CC(=O)NCCCN1CCOCC1 | -20.7%
CCC(C)NS(=O)(=O)c1ccc(-c2csnn2)s1 (stereo not shown) | -8.46%
